Assay results from PubChem BioAssay AID1963576 (National Center for Advancing Translational Sciences (NCATS), 2024).
Hit rate of the full screen: of about 46,000 compounds, about 60 (0.1%) were called active. Another 3% or so got no clear call; they are omitted. Calls come from the whole dose curve; as a rule, active = well fitted inhibition curve with a large enough effect; inconclusive = small, poorly fitted or top-dose-only effect; inactive = no such curve, though single readings can be large or run the other way. Some of the results follow.

assay: Primary qHTS assay for Inhibitors of ovarian cancer metastasis using an organotypic tumor microenvironment (TME) model.; note: nearly all actives have a fitted effect of over 65% in size;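 for activity change, negative = inhibition: plate controls were DMSO wells for no effect and tomatine positive control wells for full effect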; conditions: SKOV3ip1-GFP adhesion/invasion on 3D omental model, fluorescence; series mostly up to 45.8 µM; activity change, negative = inhibition: at the top concentration
Outline: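 Primary human omental fibroblast/mesothelial 3D culture pre-formed 48 h. SKOV3ip1-GFP cells added with compounds (0.36-46 umol/L), incubated 2 h RT/16 h 37 C, fixed; GFP cells quantified at 488/509 nm.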

Compound | activity change, negative = inhibition | outcome
CCn1c(=O)n(CC2CCC(C(=O)NC(C)C)CC2)c(=O)c2sccc21 (stereo not drawn) | inactive: 4.06% | –
CCN1CCN(c2ncnc3c2cnn3-c2ccc(F)cc2)CC1 | inactive: -1.88% | –
CCOC(=O)c1c(C)[nH]c(C)c1S(=O)(=O)N1CCC(C(=O)Nc2ccc(OC)c(OC)c2)CC1 | inactive: -1.03% | –
COc1ccc(C(=O)NCC(c2ccc3c(c2)OCO3)N2CCN(C)CC2)cc1OC (stereo not drawn) | inactive: -7.35% | –
Cc1cc(NC(=O)CN2CCC(O)CC2)nc2c1c(=O)oc1ccccc12 | – | inactive
CCOC(=O)c1cc(CC)sc1NC(=O)COc1ccccc1C | inactive: -17% | –
CCOc1ccc(-n2c(SCC(=O)c3ccccc3)nc3c([nH]c4ccccc43)c2=O)cc1 | – | inactive
CC1(C)Cc2c(-c3ccccc3)c(-c3ccc(Cl)cc3)c(CC(=O)O)n2C1 | inactive: -0.698% | –
CCOc1ccccc1N=Nc1c(C)[nH]n(-c2nc(-c3ccccc3)cs2)c1=O | inactive: -4.08% | –
CC(C)c1nc2sc3c(N4CCCCC4)ncnc3c2c2c1CCCC2 | inactive: 2.48% | –
COc1ccc(NC(=O)c2ccc3oc(=O)c(S(=O)(=O)c4ccc(F)cc4)cc3c2)c(OC)c1 | – | inactive
COc1ccc(CC(=O)Nc2ccc(-c3nc4ccccc4s3)c(C)c2)cc1 | inactive: -1.83% | –
COCC(C)Nc1ncnc2c1cnn2-c1cccc(Cl)c1 (stereo not drawn) | inactive: -3.95% | –
Cc1ccc(Cl)cc1N1CCN(C(=O)c2cc(S(=O)(=O)N3CCCCC3)cn2C)CC1 | inactive: 7.05% | –
COc1ccc(C(=O)Oc2ccc(C3NC(=O)c4c(sc5c4CCN(C)C5)N3)cc2OC)cc1 (stereo not drawn) | inactive: -8.63% | –
COC(=O)c1ccc(CSc2nc3ccncc3n2Cc2ccc(F)cc2)cc1 | inactive: 0.487% | –
O=S(=O)(c1ccccc1)c1nnn2c1nc(NC1CCCCCC1)c1sccc12 | inactive: 15.6% | –
Cc1cccc(Cc2c(C)nc3nc(SCc4cccc(F)c4)nn3c2C)c1 | inactive: -0.872% | –
O=C(CN(c1cccc(C(F)(F)F)c1)S(=O)(=O)c1ccccc1)Nc1cccc(Cl)c1 | inactive: -28.8% | –
Cc1ccc(-c2nc(S(=O)(=O)c3ccc(C)cc3)c(N3CCCCC3)o2)cc1 | – | inactive
COc1cc(S(=O)(=O)n2ccnc2C(C)C)ccc1Br | inactive: -1.25% | –
Cc1ccc(Cn2ccnc2SCC(=O)NC2CCCC2)cc1 | inactive: -2.66% | –
CCOc1ccc(CCNC(=O)CN2C(=O)COc3ccc(S(=O)(=O)N(CC)CC)cc32)cc1 | inactive: 1.23% | –
COc1ccccc1CNC(=O)C(=O)NCC(c1cccnc1)N1CCN(c2ccc(F)cc2)CC1 (stereo not drawn) | inactive: 2.22% | –

Compound | activity change, negative = inhibition | outcome
COc1ccc2c(CNCc3ccco3)c(C(=O)O)n(Cc3ccccc3)c2c1 | – | inactive
COc1ccccc1NC(=O)COC(=O)CC(C)(C)CC1=NS(=O)(=O)c2ccccc2N1 | inactive: 8.13% | –
CSc1ccc(C2c3[nH]c4ccccc4c3CCN2C(=O)CCC2CCCC2)cc1 (stereo not drawn) | inactive: -1.29% | –
COC(=O)c1c(-c2cccs2)csc1NC(=O)c1ccc(C(C)(C)C)cc1 | inactive: -1.84% | –
COc1ccc(-c2nnc(SCC(=O)c3ccc(NC(C)=O)cc3)o2)cc1OC | inactive: -0.327% | –
COc1ccc(-c2nc3ccccc3o2)cc1NC(=O)c1ccc(OCC(C)C)cc1 | inactive: -2.61% | –
CCc1ccc(-n2c(=O)c3ccc(C(=O)NCCc4ccccc4)cc3n(Cc3ccccc3C#N)c2=O)cc1 | inactive: 4.18% | –
Cc1ccc2c(=O)cc(C(=O)Nc3c(C(=O)c4ccccc4)oc4ccccc34)oc2c1 | inactive: 1.32% | –
CCOc1ccc(NS(=O)(=O)c2ccc3[nH]cc(C(=O)N(C)C4CCCCC4)c(=O)c3c2)cc1 | inactive: 2.91% | –
CCOC(=O)c1c(-c2ccc(C)cc2C)csc1NC(=O)c1ccccc1Cl | inactive: 1.01% | –
NC(=O)C1CCN(C(=O)c2ccc3c(c2)N(Cc2cccc(Cl)c2)C(=O)c2ccccc2S3(=O)=O)CC1 | inactive: 15.6% | –
CC(CNC(=O)c1ccc(Nc2nc3ccccc3n3nnnc23)cc1)c1ccccc1 (stereo not drawn) | inactive: 2.64% | –
COc1ccc(C2C(=O)N(C3CCCCCC3)CC(=O)N2Cc2ccccc2)cc1 (stereo not drawn) | inactive: -14.3% | –
COC(=O)c1c(-c2cccs2)csc1NC(=O)COc1ccccc1 | inactive: -4.83% | –
NC(=O)Cn1c(=O)n(CCCCCC(=O)NCc2ccccc2Cl)c(=O)c2sccc21 | inactive: -8.83% | –
COCCNC(=O)Cn1cc2c(n1)-c1c(oc(C(=O)N3CCCC3)c1C)CC2 | – | inactive
CCCn1c2ccccc2c2cnn(CC(=O)NC(C)CC)c(=O)c21 (stereo not drawn) | inactive: 7.46% | –
COc1ccc(OC(=O)CSc2nnc(-c3ccc(F)cc3)o2)cc1 | inactive: 8.43% | –
CCC(=O)N1CCN(c2nc3c(C)cccc3s2)CC1 | – | inactive
CCCCOC(=O)/C(C#N)=C/c1ccc(-c2ccc(Br)cc2)o1 | inactive: -12.1% | –
Cc1ccc(N2C(=O)CSC23C(=O)N(CC(=O)Nc2ccc(C)cc2C)c2ccccc23)cc1 (stereo not drawn) | inactive: -4.3% | –
CCc1cccc(C)c1NC(=O)c1nc2ccccc2nc1N1CCCCC1 | inactive: -5.41% | –
Cc1ccc(NC(=O)CCCN2C(=O)COc3ccc(C)cc32)c(C)c1 | inactive: 1.32% | –
Cc1ccc([N+](=O)[O-])c(Oc2ncnc3c2oc2ccccc23)c1 | inactive: -14.3% | –
